In the supplement of paper PMC11417369:
± gives the standard deviation of the averaged measurements. The list shows a part of the results.

The sequences below were run on PfAP2-G AP2 domain (GST-tagged) (assay: gcPBM binding intensity (ln(normalized median fluorescence intensity)); higher = stronger DNA binding).
Outline: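 Using an Agilent 4 × 180k array, primer-extended double-stranded 36-bp intergenic genomic probes and negative controls were exposed for 1 h to GST-fused P. falciparum DNA-binding domains expressed in E. coli. Binding was carried out in 1× PBS with 1% milk, 0.2 mg/ml BSA, 0.5% salmon testes DNA and 0.03% Triton X-100, and protein was detected with Alexa488 anti-GST antibody and a 488 nm scan. Binding intensity is the highest Masliner-normalised natural-log median intensity across replicate spots of either probe orientation.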

| Sequence | gcPBM binding intensity (ln) |
| --- | --- |
| ATTATCAAGACATTGCGTACTTAAAAAAAAAAAAAT [XGTACX_site6347] | 11.4 ± 0.93 |
| TTTATTTATTTATTCTTATTTTTTTTTTTTTTTACT [CACACA_negctrl_site257] | 9.425 ± 0.064 |
| ACATATTAGGGTCATGAACACACAAAAAAAAAAAAA [CACACA_site8218] | 10.4 ± 0.57 |
| TATAAATAAATAAACACACACAAATAAAATAAAAAA [CACACA_site7623] | 9.915 ± 0.021 |
| TTTTTTTGCCATATTACACACACACCGGTAAACCCC [CACACA_site8475] | 10.7 ± 0.61 |
| TAATACATAAATGATTGTACATAAGAATTGAAACAT [XGTACX_site4583] | 10.9 ± 0.47 |
| ATGAAGATTTAAAAATGTACATATGATCTATGTCCT [XGTACX_site8409] | 10.8 ± 0.39 |
| AATTCAGCTTTACAACGTACACAATCATATGTCTAT [XGTACX_site8113] | 11.3 ± 0.93 |
| TATGACACTTTGAAGGGTACATGCAGAAAAAAAAAA [XGTACX_site569] | 11.1 ± 0.74 |
| ATATATACATATACTATATCTTTTATTTTTATTATT [GTGCAC_negctrl_site127] | 9.74 ± 0.27 |
| TTATATGCACTTTTTGCACACGTATGAATAACAAAA [CACACA_site1811] | 10.7 ± 0.49 |
| TCTAGGAAAAATTATAGTACACAAAAATATATATAT [XGTACX_site4136] | 11.3 ± 0.8 |
| GGATATATTTTATGTACACACACATATAAGGGATTA [CACACA_site4181] | 11.4 ± 0.79 |
| TATATATATTAAAAACGTACAAAATAAGAATTAATT [XGTACX_site5979] | 11.3 ± 0.76 |
| TATATATATTATATATGTACACATATGTGAGAATGA [XGTACX_site2992] | 11.5 ± 0.88 |
| TTGTTTTGCTAAAAATGTACTCTATATAAAAGCTTT [XGTACX_site4027] | 11.1 ± 0.65 |
| CAAAAACATACCTACACACACAATATGTATAAATAA [CACACA_site7617] | 10.14 ± 0.085 |
| TATCAAAATAAATGCACACAAATTGCACATATCTAT [CACACA_site1097] | 9.96 ± 0.12 |
| ATTTATATGTAGATGTGTACTTAATTGTAATGTGTT [XGTACX_site6422] | 11.6 ± 1.1 |
| AAAAAAAAAAAAAACACACACACACCCATACACATA [CACACA_site2860] | 10.3 ± 0.24 |
| AACTTTTTTATATGCACACATAAACAAGGATATATA [CACACA_site2874] | 10.3 ± 0.24 |
| TACTTCGATAATAATCGTACATATATATTGTATTTA [XGTACX_site5700] | 11.2 ± 0.76 |

| Sequence | gcPBM binding intensity (ln) |
| --- | --- |
| CAAAAAATACGATGTTGTACTATGTATTCCTGATGT [XGTACX_site246] | 10.7 ± 0.49 |
| TATATATACATAAAAACATGCAATATATACACATTA [TGCATGCA_site444] | 9.85 ± 0.014 |
| TTATAAAAAAAAAAAAAAAAGAAAATGAATTCACGA [CACACA_negctrl_site1248] | 9.41 ± 0.15 |
| TCCTATATCACAAATGTGCACAGAAAAAAAAAATAT | 10.5 ± 0.42 |
| ATATATATATACATACGTACACACAAATATTAAAAT [XGTACX_site4007] | 11.6 ± 1.2 |
| AATATATATAATAATTGTACAATACGTATGTTATAT [XGTACX_site8745] | 11 ± 0.54 |
| TGTATACATAATATTTGTACATATTGTTATATATAT [XGTACX_site740] | 10.8 ± 0.42 |
| TTCGACGAGAGCAAGTGTACTCTTGAATAATTTATA [XGTACX_site7613] | 11.3 ± 0.9 |
| ATTTTATTTTTTGAGTGTACTAGTTCAACAACTCCG [XGTACX_site8600] | 11.3 ± 0.81 |
| TGTTATATATTATATACATGCACAAAAGCAACACAA [TGCATGCA_site1009] | 10.09 ± 0.071 |
| ATATTTATGACCGTACGTACCTAACAATACAATCAA [XGTACX_site4511] | 11.5 ± 0.9 |
| TGAATTTCAAAACAGTGTACATTAATATATATATAA [XGTACX_site7951] | 11.2 ± 0.68 |
| ATAATATATATATGTAGTACGTATATAATTTTAATA [XGTACX_site5228] | 11.3 ± 0.81 |
| TATATATCCTTCTATGCATGCATATGGATAGATTTC [TGCATGCA_site58] | 9.87 ± 0.23 |
| TATATATAGAAACACACACACAAAAAAAAAAAAAAA [CACACA_site1506] | 10 ± 0.47 |
| ATTTAAAAAACTTTTAGCAAAAAAAAAAAATAATAA [TGCATGCA_negctrl_site191] | 9.705 ± 0.049 |
| AAATTGATATTATATATATATATATATATATATATA [GTGCAC_negctrl_site482] | 9.79 ± 0.49 |
| AAAAATAAAAAAAACACACATACCTTATTTTTGTTC [CACACA_site2634] | 9.98 ± 0.17 |
| AATTAAAATTTTTTTTTTTTTTTTTTTTTTCTATTA [CACACA_negctrl_site1585] | 9.13 ± 0.19 |
| AAAAGTTAAGCAACAAATTTTATTTCTTATATATAA [TGCATGCA_negctrl_site134] | 9.82 ± 0.071 |
| ATATTTATAAATTGCACACAAATAATAACATTATAT [CACACA_site5322] | 9.99 ± 0.028 |
| TAATCATAAAAAAATACACACATATAAAATATAGAT [CACACA_site7020] | 9.81 ± 0.17 |
